Assays:
Assay in all cases: ELISA, plate coated with 1 µg/mL B7 family protein
[1] = molecular target: T1, Human PD-L1/B7-H1 Protein, His Tag (Acro PD1-H5229) (human, UniProt Q9NZQ7 part only)
T1 construct: Bought protein
Procedure: (§1) The proteins of the B7 family (see Table 9-1 for details) were each diluted to 1 μg/mL with PBS, added to a 96-well plate (Corning, #9018) at 100 μL per well, and incubated overnight at 4° C. After the liquid was discarded, the plate was washed 3 times with PBST buffer (pH 7.4, containing 0.05% tween-20), and 250 μL of 2% BSA blocking buffer was added. The plate was incubated at 37° C. for 1 hour. The blocking buffer was discarded, and the plate was washed 3 times with PBST buffer (pH 7.4, containing 0.05% Tween-20). The test antigen-binding protein was diluted to 2 concentrations: 10 nM and 1 nM, and added at 100 μL per well. The plate was incubated at 37° C. for 1 hour. An isotype antibody was taken as a control. After the plate was washed 3 times with PBST buffer (pH 7.4, containing 0.05% Tween-20), the plate was added with a 5000-fold diluted goat anti-human F(ab′)₂ HRP secondary antibody (Jackson ImmunoResearch, 109-035-097), and incubated at 37° C. away from light for 1 hour. After the plate was washed 3 times with PBST buffer (pH 7.4, containing 0.05% Tween-20), TMB (Biopanda, #TMB-S-003) was added at 100 μL/well. The plate was left away from light at room temperature for about 30 minutes. The reactions were terminated by adding 50 μL of stop buffer (BBI life sciences, #E661006-0200) to each well, and the absorbance values at 450 nm (OD450) was measured using a microplate reader (PerkinElemer, #Enspire).

[2] = molecular target: T2, Recombinant human B7H7/HHLA2 Fc Chimera (R&D 8084-B7-050) (human, UniProt Q9UM44 23-344)
T2 construct: Bought protein
T2 sequence (looked up): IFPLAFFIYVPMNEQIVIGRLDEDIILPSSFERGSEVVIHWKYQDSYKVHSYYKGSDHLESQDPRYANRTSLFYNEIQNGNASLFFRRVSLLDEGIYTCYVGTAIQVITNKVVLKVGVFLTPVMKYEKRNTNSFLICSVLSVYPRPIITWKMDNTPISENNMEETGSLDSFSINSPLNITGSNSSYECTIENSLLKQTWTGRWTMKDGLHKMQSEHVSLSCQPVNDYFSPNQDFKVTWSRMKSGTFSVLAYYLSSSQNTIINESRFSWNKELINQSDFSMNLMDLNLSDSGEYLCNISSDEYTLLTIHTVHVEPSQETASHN
Procedure: as §1

[3] = molecular target: T3, Recombinant human VISTA/B7H5/PD-1H Fc Chimera (R&D 7126-B7-050) (human, UniProt Q9H7M9 33-194)
T3 construct: Bought protein
T3 sequence (looked up): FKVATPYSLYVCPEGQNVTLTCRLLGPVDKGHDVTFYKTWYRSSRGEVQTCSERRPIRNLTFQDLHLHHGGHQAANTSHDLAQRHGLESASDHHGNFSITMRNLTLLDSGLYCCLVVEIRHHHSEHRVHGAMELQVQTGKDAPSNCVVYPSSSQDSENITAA
Procedure: as §1

[4] = molecular target: T4, CD275/ICOS ligand Protein, Human, Recombinant (Fc Tag) (Sino Biological 11559-H02H) (human, UniProt O75144 19-258)
T4 construct: Bought protein; also called B7H2
T4 sequence (looked up): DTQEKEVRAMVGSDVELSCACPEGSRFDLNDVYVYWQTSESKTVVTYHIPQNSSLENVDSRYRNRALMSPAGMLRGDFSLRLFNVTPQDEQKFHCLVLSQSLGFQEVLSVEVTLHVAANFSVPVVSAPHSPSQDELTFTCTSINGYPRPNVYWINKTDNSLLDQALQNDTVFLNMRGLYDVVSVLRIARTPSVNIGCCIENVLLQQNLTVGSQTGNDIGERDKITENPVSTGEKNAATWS
Procedure: as §1

[5] = molecular target: T5, Human B7-DC/PD-L2/CD273 Protein, Recombinant (Fc Tag) (Sino Biological H10292-H02H) (human, UniProt Q9BQ51 20-219)
T5 construct: Bought protein
T5 sequence (looked up): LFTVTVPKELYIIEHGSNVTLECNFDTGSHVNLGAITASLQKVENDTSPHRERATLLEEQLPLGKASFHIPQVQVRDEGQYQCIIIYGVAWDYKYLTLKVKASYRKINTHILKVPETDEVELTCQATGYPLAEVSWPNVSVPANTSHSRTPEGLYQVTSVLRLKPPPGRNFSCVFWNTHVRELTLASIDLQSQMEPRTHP
Procedure: as §1

[6] = molecular target: T6, Human B7-2/CD86 Protein, Fc Tag (Acro CD6-H5257) (human, UniProt P42081 26-247)
T6 construct: Bought protein
T6 sequence (looked up): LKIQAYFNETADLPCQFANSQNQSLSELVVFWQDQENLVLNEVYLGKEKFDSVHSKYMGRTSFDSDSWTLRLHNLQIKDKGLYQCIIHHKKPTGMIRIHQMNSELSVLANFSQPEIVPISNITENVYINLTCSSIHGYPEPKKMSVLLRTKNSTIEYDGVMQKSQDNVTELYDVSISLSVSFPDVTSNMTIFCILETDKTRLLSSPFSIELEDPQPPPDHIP
Procedure: as §1

Measured: binding result

T1 sequence (Q9NZQ7 19-238 limits assumed): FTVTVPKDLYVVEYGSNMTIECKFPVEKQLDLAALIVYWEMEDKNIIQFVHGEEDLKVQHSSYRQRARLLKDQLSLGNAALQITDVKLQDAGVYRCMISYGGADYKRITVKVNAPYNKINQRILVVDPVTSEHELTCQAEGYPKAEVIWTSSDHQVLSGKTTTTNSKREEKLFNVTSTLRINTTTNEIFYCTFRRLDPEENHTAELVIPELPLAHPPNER

B1: PR002421 (antibody, human IgG1, kappa)
heavy: QVQLVQSGAEVKKPGSSMRVSCKASEDTFSSYAISWVRQAPGQGLEWMGGTAPIFGTTNYAQKFQGRVTITADKSTSTAYMELSSLRSEDTAVYYCARGGPYFDYWGQGTLVTVSSASTKGPSVFPLAPSSKSTSGGTAALGCLVKDYFPEPVTVSWNSGALTSGVHTFPAVLQSSGLYSLSSVVTVPSSSLGTQTYICNVNHKPSNTKVDKKV[human IgG1 Fc with changes not written out]
light: EIVMTQSPASLSVSPGERATLSCRASQSVSSNLAWYQQKPGQAPRLLIYGASTRATGIPARVSGGGSGTEFTLTISSLQSEDFAVYYCQQYKNWPFTFGPGTKLEIKRTVAAPSVFIFPPSDEQLKSGTASVVCLLNNFYPREAKVQWKVDNALQSGNSQESVTEQDSKDSTYSLSSTLTLSKADYEKHKVYACEVTHQGLSSPVTKSFNRGEC
notes: PTM variant/DE mutant of PR002037 (L: C87Y; Fc S239D, I332E), human IgG1; also called RP002421
no binding (tested: 10 nM): all assays above

Reference: US20230312722A1 (NONA BIOSCIENCES SUZHOU, published 2023)
